Measurements published in PubChem BioAssay AID488969 (Vanderbilt High Throughput Screening Facility, 2010).
Whole data set: some 110,000 compounds, median “z-score” near -0.1, cut for the highest 2% near 2. Some of the results follow. Calls of active or inactive are those of the source.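 Rule for the calls: active = z-score in the third read window above 3 or below -3; inactive = the rest.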

The molecules below were run against Metabotropic glutamate receptor 8 (Rattus norvegicus) (UniProt P70579) (assay: mGluR8 Gi/Go-coupled signaling modulation – cell-based, rat, thallium flux, HTS, primary screen (AID 488969)). Conditions: HEK293 rat mGluR8, GIRK (G protein-gated inwardly rectifying potassium channel) thallium flux, FluoZin2; at 10 µM; stronger effect = higher value; submaximal glutamate (EC20) added with thallium.
Chain of UniProt P70579 (P70579 whole entry, looked up): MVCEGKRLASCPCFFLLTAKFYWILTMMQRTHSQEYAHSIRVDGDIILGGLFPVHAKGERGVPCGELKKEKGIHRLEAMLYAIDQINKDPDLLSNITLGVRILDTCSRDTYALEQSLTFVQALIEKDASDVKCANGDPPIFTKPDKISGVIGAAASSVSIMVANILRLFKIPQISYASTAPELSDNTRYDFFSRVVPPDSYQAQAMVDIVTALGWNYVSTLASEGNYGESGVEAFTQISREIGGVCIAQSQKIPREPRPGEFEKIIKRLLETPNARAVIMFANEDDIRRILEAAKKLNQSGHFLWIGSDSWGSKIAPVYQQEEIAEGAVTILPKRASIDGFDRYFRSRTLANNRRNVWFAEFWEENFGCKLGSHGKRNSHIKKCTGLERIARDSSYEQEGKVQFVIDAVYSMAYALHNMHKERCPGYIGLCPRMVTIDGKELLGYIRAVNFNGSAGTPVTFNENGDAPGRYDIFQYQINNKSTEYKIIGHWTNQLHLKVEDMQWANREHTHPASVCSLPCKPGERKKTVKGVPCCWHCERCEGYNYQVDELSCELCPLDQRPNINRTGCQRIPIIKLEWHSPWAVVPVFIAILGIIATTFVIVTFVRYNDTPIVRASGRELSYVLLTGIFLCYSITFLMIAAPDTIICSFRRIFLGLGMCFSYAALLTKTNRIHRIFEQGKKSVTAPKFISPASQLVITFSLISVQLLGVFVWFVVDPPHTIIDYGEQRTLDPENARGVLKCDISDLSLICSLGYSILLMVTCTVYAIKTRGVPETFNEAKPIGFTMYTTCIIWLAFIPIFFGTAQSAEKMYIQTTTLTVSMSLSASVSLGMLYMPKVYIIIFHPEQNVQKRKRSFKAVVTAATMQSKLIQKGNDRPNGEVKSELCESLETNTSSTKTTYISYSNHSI
COc1ccc(/C=N/Nc2nc(N3CCCC3)nc(N3CCCC3)n2)cc1O gave a z-score of -2.08.
Work on CNC(=O)NC(=O)C(C)OC(=O)c1cc2c(s1)CCCCC2 (stereo unspecified) yielded a z-score of -0.628.
With COc1ccc(C(C)C)cc1S(=O)(=O)N1CCN(C)CC1 the z-score was -1.09.
With Cc1ccc(C)n1-c1sc2c(c1C#N)CCCC2 the z-score was -0.0485.
Cc1ccc(C)n1-c1ccc(-n2cnnn2)cc1 gave a z-score of -0.313.
Molecule O=C(c1ccccc1)c1ccc(OCC(O)CN2CCCCC2)cc1 (stereo unspecified) has a z-score of 2.13.
For O=C(NCc1ccco1)c1cc(-c2cccnc2)nc2ccc(Cl)cc12, the z-score was -1.71.
Work on CCCOCC1CC2(SC(=Nc3ccc(C)cc3)NC2=O)C(=O)O1 (stereo unspecified) yielded a z-score of 0.399.
In the case of CC(C)CNC(=O)c1ccccc1NC(=O)Nc1ccccc1, the z-score is reported as 0.337.
With COC(=O)c1ccc(/C=C/C(=O)c2ccc(OC)cc2)cc1 the z-score was -0.32.
Cc1ccc(C2C3=C(CCCC3=O)OC3=C2C(=O)CCC3)cc1 showed a z-score of -0.121.
Molecule Cc1ccc(C(=O)CCC(=O)Nc2cccc(C(F)(F)F)c2)cc1C has a z-score of 0.0595.
Cc1nc2c(cc(Oc3ccc(S(=O)(=O)N4CCOCC4)cn3)c3ccsc32)s1 gave a z-score of -0.255.
COc1cc(C(=O)Nc2ccc(N3CCOCC3)cc2)ccc1OCc1c(C)noc1C was tested, and the z-score was -0.221.
Molecule CS(=O)(=O)Oc1ccc(/C=N/NC(=O)c2ccncc2)cc1 has a z-score of -0.147.
For Cn1c(N)c(C(=O)COC(=O)c2ccc(Br)o2)c(=O)n(C)c1=O, the z-score was -0.0397.
For COc1ccc2cc3c(N)nn(C(=O)Cc4ccc(Cl)cc4)c3nc2c1, the z-score was -0.0242.
Work on CCCc1[nH]n(-c2nc3ccccc3s2)c(=O)c1C=NCC(C)C yielded a z-score of 0.0416.
C/C(=N\NC(=O)c1ccccc1)c1ccc(NC(=O)c2cccs2)cc1 showed a z-score of -0.203.
CCCCNC(=O)CC1SC(=NCC)N(CC)C1=O (stereo unspecified) gave a z-score of 0.267.
For CC(=O)Nc1ccc(SC(C)C(=O)NC(N)=O)cc1 (stereo unspecified), the z-score was 0.219.
Cc1cc(Cl)ccc1OCC(=O)NCCCN1CCOCC1 was tested, and the z-score was -0.323.
O=C(CCCn1c(=S)[nH]c2ccc(Br)cc2c1=O)NCC1CCCO1 (stereo unspecified) showed a z-score of 0.917.
Cc1cc(C)n(C(=O)c2ccc(C)c(F)c2F)n1 showed a z-score of -0.238.
With CCN(CC)c1ccc2cc(S(=O)(=O)c3ccc(C)cc3)c(=O)oc2c1 the z-score was -0.154.
CN(C)CCNC(=O)C(C(=O)c1ccccc1)n1ccccc1=O (stereo unspecified) gave a z-score of -0.0773.
O=C(NCCCN1CCCC1)c1ccc(CSCc2cccc(Cl)c2)o1 was tested, and the z-score was active: 3.42.
COc1ccc(C(=O)c2ccc(N(C)C)cc2)c2ccccc12 was tested, and the z-score was -0.189.
For CC(=N\Nc1ccccc1)/C(=N/O)C(=O)Nc1ccccc1, the z-score was -0.203.
In the case of COc1ccc(CN2C(=O)C(O)(CC(=O)c3c(C)n[nH]c3C)c3ccccc32)cc1OC (stereo unspecified), the z-score is reported as -0.52.
Work on Cc1ccc(OC(F)F)c(NC(=O)Nc2cccc(C(F)(F)F)c2)c1 yielded a z-score of 0.759.
N#CC1(C#N)CC(C=O)=C(N)C1(C#N)CC(=O)C12CC3CC(CC(C3)C1)C2 (stereo unspecified) was tested, and the z-score was -0.368.
For Cc1ccc(-n2nc3ccc(NC(=O)c4ccco4)cc3n2)cc1, the z-score was 0.46.
Fc1cccc2sc(Nc3nnc(-c4ccccc4)o3)nc12 was tested, and the z-score was active: 17.1.
In the case of Oc1ccc(C2=Nn3c(nnc3-c3ccco3)SC2)cc1O, the z-score is reported as -0.407.
Work on Cc1nc2ccc(NC(=O)C(F)(F)F)cc2o1 yielded a z-score of 0.0859.
Work on Cc1cc(C)cc(C(=O)N2CCN=C2SCc2ccc([N+](=O)[O-])cc2)c1 yielded a z-score of -0.286.
C=CCn1c(CNC(=O)c2ccccc2C)nnc1SCC(=O)NC1CCCC1 gave a z-score of 0.32.
With Cc1cc(C)c(S(=O)(=O)N2C=CC(C(F)(F)F)=NCC2)c(C)c1 the z-score was -0.196.
For CCC(C)NS(=O)(=O)c1ccc(S(=O)(=O)N(CC(=O)Nc2ccccc2)CC2CCCO2)cc1 (stereo unspecified), the z-score was -0.398.
CCn1c(Cc2ccccc2)nnc1SCC(=O)Nc1ccc(OC)cc1 gave a z-score of 0.447.
Work on CCOC(=O)N1CCN(C(=O)CN(c2ccc(C)c(C)c2)S(=O)(=O)c2ccccc2)CC1 yielded a z-score of -0.169.
With CCCc1nc2ccc(NC(=O)NCCC(=O)OCC)cc2c(=O)n1Cc1ccc(Cl)cc1 the z-score was -0.126.
In the case of Cc1cc(NS(=O)(=O)Cc2ccccc2)no1, the z-score is reported as -0.315.
With COc1cc2c(cc1OC)-c1nc3ccccc3c(=O)n1C(C)(C)C2 the z-score was -0.179.
For CCOCc1nnc(NC(=O)c2c(OC)cccc2OC)s1, the z-score was 0.0658.
In the case of COc1ccc(/C=C2\CCCC3C2=NN(C(=O)CSc2ncn[nH]2)C3c2ccc(OC)cc2)cc1 (stereo unspecified), the z-score is reported as -0.45.
COc1ccc(N2CCN(C(CNC(=O)c3ccc4c(c3)OCO4)c3cccnc3)CC2)cc1 (stereo unspecified) gave a z-score of -0.438.
Cc1ccccc1CSCC(=O)Nc1c(C)n(C)n(-c2ccccc2)c1=O showed a z-score of -0.0609.
CCN(CC)S(=O)(=O)c1ccc(NC2c3ccccc3C(=O)N2CCN2CCOCC2)cc1 (stereo unspecified) gave a z-score of -0.251.
For COC(=O)NCC(c1ccco1)N1CCN(c2ccc(F)cc2)CC1 (stereo unspecified), the z-score was -0.385.
Cc1ccc(NC(=O)c2ccc(S(=O)(=O)N3CCOCC3)cc2)nc1 showed a z-score of -0.416.
Work on CCOC(=O)C1=C(C)NC(SCC(N)=O)=C(C#N)C1c1ccccc1 (stereo unspecified) yielded a z-score of -0.401.
COC(=O)C1=C(C)N(C(C)c2ccccc2)C(=O)C1 (stereo unspecified) gave a z-score of -0.331.
COC(=O)c1cccc(NC(=O)C2COc3ccccc3O2)c1 (stereo unspecified) was tested, and the z-score was -0.323.
Cc1cc(C)cc(NC(=S)Nc2ccccn2)c1 gave a z-score of 1.28.
O=C(CSc1nc(-c2ccco2)cc(C(F)(F)F)n1)N1CCSCC1 showed a z-score of -0.262.
For COc1cc(OC)cc(-n2nnnc2SCC(=O)NC2CCCC2)c1, the z-score was -0.287.
Work on O=C(N/N=C\c1ccc(Sc2ccccn2)o1)c1cccc(F)c1 yielded a z-score of -0.471.
With CCc1ccccc1NC(=S)/N=C(\N)Nc1nc(C)c2cc(C)ccc2n1 the z-score was 1.03.
With C=CCn1c(C)c(C(C)=O)c(N2CCN(c3ccccc3)CC2)nc1=S the z-score was -0.187.
Molecule O=C1NC2(CCCCC2)C(=O)N1/N=C/c1ccc(O)cc1O has a z-score of -0.127.
In the case of CC1=Nn2c(nnc2-c2cccs2)SC1, the z-score is reported as -0.211.
In the case of COc1ccc(S(=O)(=O)N(CCCN2CCCC2=O)Cc2cc3c(C)cc(C)cc3[nH]c2=O)cc1, the z-score is reported as -0.276.
With NNC(=S)NCc1cccnc1 the z-score was -0.257.
In the case of Cc1nc(SCC(=O)NCc2ccco2)[nH]c(=O)c1C, the z-score is reported as 0.115.
In the case of O=C(O)C1OC2OC3(CCCCC3)OC2C2OC3(CCCCC3)OC12 (stereo unspecified), the z-score is reported as -0.0598.
Molecule COc1ccccc1-c1c(C)nn2c(N3CCC(C(N)=O)CC3)cc(C)nc12 has a z-score of -1.24.
With COc1ccc(/C=N/NC(=S)NC2CCS(=O)(=O)C2)cc1OC (stereo unspecified) the z-score was -0.0973.
Cc1cc(C)c(C#N)c(SCc2cc3c(cc2Cl)OCO3)n1 was tested, and the z-score was 0.461.
COCCn1nnnc1CN1C2CCCC1CC(NC(C)=O)C2 (stereo unspecified) gave a z-score of -0.112.
